# In PubChem BioAssay AID488969 (Vanderbilt High Throughput Screening Facility, 2010):
# In all, about 110,000 compounds were measured (“z-score”: median about -0.1, highest 2% from about 2 on). Some of the results follow. Activity calls are given as the source filed them.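 The calls were made as follows: active = z-score in the third read window above 3 or below -3; inactive = the rest.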
# Biological target: Metabotropic glutamate receptor 8 (Rattus norvegicus) (UniProt P70579)
# Test: rat mGluR8 modulators via GIRK flux, primary screen, cell-based, thallium flux, HTS (AID 488969)
# Conditions: HEK293 rat mGluR8, GIRK (G protein-gated inwardly rectifying potassium channel) thallium flux, FluoZin2; at 10 µM; stronger effect = higher value; submaximal glutamate (EC20) added with thallium
# UniProt P70579, sequence (P70579 whole entry, looked up): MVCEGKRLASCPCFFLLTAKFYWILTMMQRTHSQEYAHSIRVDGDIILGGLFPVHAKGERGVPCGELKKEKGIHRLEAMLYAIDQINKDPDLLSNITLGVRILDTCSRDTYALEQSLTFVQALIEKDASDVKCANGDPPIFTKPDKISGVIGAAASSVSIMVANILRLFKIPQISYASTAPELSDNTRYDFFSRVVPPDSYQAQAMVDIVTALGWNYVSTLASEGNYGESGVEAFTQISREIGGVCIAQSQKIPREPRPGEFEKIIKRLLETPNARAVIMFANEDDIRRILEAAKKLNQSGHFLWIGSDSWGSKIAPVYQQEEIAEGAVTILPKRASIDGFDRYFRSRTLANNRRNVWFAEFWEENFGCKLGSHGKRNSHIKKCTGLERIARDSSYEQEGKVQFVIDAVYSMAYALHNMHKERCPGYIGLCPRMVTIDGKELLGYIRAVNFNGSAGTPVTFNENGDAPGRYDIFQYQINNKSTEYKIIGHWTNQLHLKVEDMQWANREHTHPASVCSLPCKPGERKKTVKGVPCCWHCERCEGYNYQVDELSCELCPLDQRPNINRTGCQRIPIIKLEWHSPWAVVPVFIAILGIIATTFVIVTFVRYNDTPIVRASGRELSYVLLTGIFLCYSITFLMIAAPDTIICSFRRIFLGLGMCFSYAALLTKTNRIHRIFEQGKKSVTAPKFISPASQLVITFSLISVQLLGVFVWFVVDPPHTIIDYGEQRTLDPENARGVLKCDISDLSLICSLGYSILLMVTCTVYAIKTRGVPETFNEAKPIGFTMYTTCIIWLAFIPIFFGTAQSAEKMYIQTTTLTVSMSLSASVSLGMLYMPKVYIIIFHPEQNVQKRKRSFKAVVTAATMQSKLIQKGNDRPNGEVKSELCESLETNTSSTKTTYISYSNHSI
row,SMILES,z-score
1,COc1cc(CNc2nc3ccccc3n2C)cc(OC)c1OC,-0.245
2,COc1ccc(C2(O)CCN(Cc3nnnn3Cc3ccc(F)cc3)CC2)cc1,-0.521
3,COc1ccc(C2CC(c3ccccc3OC(C)=O)=NN2C(=O)/C=C/c2ccccc2)cc1OC (stereo unspecified),-0.253
4,O=C(CN1C(=O)C2C3c4ccccc4C(c4ccccc43)C2C1=O)N1CCOCC1 (stereo unspecified),-0.00306
5,O=C(NCCC(c1ccccc1)c1ccccc1)c1ccc(Br)o1,1.8
6,CCOc1ccc(C(=O)Cc2cc(OC)c(OC)cc2[N+](=O)[O-])cc1,-0.0207
7,Cc1nc(C)c(CCNC(=O)c2ccccc2)s1,0.81
8,CC1=CCC(C(=O)O)C(C(=O)Nc2nc3ccc(S(C)(=O)=O)cc3s2)C1 (stereo unspecified),0.387
9,COc1ccc(N2CCN(CCCNS(=O)(=O)c3ccc4c(c3)oc(=O)n4C)CC2)cc1,-0.0748
10,NC(=O)C[C@@H]1N[C@]2(C(=O)Nc3ccccc32)[C@@H]2C(=O)N(c3cc(C(F)(F)F)ccc3Cl)C(=O)[C@H]12,-0.363
11,N#Cc1cc2c(nc1SCC1COc3ccccc3O1)CCC2 (stereo unspecified),0.113
12,CCn1c(-c2csc3ccccc23)n[nH]c1=S,-0.273
13,CCNC(=S)Nc1ccccc1-c1ccccc1,0.237
14,Cc1ccc(NC(=O)CN(c2ccccc2)S(=O)(=O)N(C)C)cc1C,-0.104
15,CCSc1nnc(NC(=O)c2cccnc2Cl)s1,-0.234
16,Cc1cccc(Nc2nnc(SCC(=O)Nc3ncc(C(F)(F)F)cc3Cl)s2)c1C,-0.195
17,CC1=C(C(=O)OC(C)C)C(c2ccc(C)o2)NC(=O)N1 (stereo unspecified),-0.0986
18,COc1cccc(C(=O)NNC(=O)Cc2ccc(Cl)cc2)c1,-0.153
19,CCOC(=O)C=Nc1c(N)n(C)c(=O)n(C)c1=O,2.44
20,COc1ccc(/C=N/Nc2ccc(C(F)(F)F)cc2[N+](=O)[O-])cc1O,-0.17
21,O=C(c1ccc(Cl)nc1)N1CCc2ccccc2C1,-0.281
22,Cc1ccsc1/C=N/NC(=O)c1sccc1C,active: 5.91
23,COC(=O)c1nn(-c2ccccc2)nc1-c1nn(-c2ccccc2)nc1C(=O)OC,-0.273

row,SMILES,z-score
1,COc1ccc(NC(=O)C(C)Oc2ccc(/C(C)=N\O)cc2)cc1 (stereo unspecified),0.997
2,O=C(c1ccccc1)N(NC(=O)C(O)(c1ccccc1)c1ccccc1)c1cccc(F)c1,-0.335
3,Cc1cccc(N2CCN(C(=O)Cn3cccc3C(=O)c3ccccc3)CC2)c1C,-0.349
4,CCCS(=O)(=O)c1nc(S(=O)(=O)c2ccc(C)cc2)c(NCc2ccco2)s1,-0.497
5,COCCCNc1nc2c(c(=O)[nH]c(=O)n2C)n1CC(O)COc1cccc(C)c1 (stereo unspecified),-0.438
6,COc1ccc(CCN2CC(C(=O)O)CC2=O)cc1 (stereo unspecified),-0.116
7,COc1cc(C(=O)Nc2cccc(-c3nc4cc(C)ccc4o3)c2C)cc(OC)c1OC,-0.257
8,CCCCCCCC(=O)NC(Nc1ccccc1OC)C(Cl)(Cl)Cl (stereo unspecified),0.0752
9,CC1CCc2sc(C(=O)N/N=C/C3CCCCC3)cc2C1 (stereo unspecified),-0.764
10,COCCCNC(=O)C(=O)N/N=C/c1ccc(OCC(=O)Nc2cccc(Cl)c2C)c(OC)c1,-0.14
11,CCc1nnc(NC(=O)CCC(=O)NC2CCCCC2)s1,-0.00318
12,CCN1C(=O)CC(Sc2ccccc2C(=O)O)C1=O (stereo unspecified),-0.229
13,COc1ccc(NC(=O)CC(C(=O)O)N2CCCCC2)cc1 (stereo unspecified),-0.185
14,CCC(Oc1ccccc1)C(=O)Nc1nc2ccccc2[nH]1 (stereo unspecified),0.681
15,COc1ccc(NC(=O)c2ccc(NS(=O)(=O)c3c(C)noc3C)cc2)cc1OC,-0.245
16,CCC(C)n1cnc2c(c1=O)c1nc3ccccc3nc1n2Cc1ccc(OC)cc1 (stereo unspecified),-0.0767
17,COC(=O)c1cccc(NC(=O)CSc2ncn[nH]2)c1,-0.00365
18,N#Cc1cc(NC2CCCC2)c([N+](=O)[O-])cc1C#N,-0.261
19,COc1ccc(C(=O)NC(=S)NC2CCSC2=O)cc1 (stereo unspecified),-0.163
20,COc1ccccc1N(Cc1cc2cccc(C)c2[nH]c1=O)C(=O)C(C)C,0.249
21,CSc1oc(-c2ccccc2)nc1S(=O)(=O)c1ccc(F)cc1,-1.79
22,CCS(=O)(=O)Nc1ccc(C(=O)c2ccccc2)cc1,0.395
23,Cc1cc(OCCCn2ccnc2)ccc1C(C)C,-0.0779

row,SMILES,z-score
1,CCOC(=O)c1c(C(F)(F)C(F)(F)C(F)(F)C(F)(F)F)n[nH]c1C,-1.38
2,O=C(C1CC(c2ccccc2O)=NO1)N1CCCCC1 (stereo unspecified),-0.227
3,COc1ccc(NC(=O)CCC2COc3ccccc3O2)c(OC)c1 (stereo unspecified),-0.077
4,COc1cccc(C(=O)NCc2ccc(-c3nc4ccccc4s3)cc2)c1,-0.00857
5,O=C(O)c1ccc2c(=O)n3c(nc2c1)/C(=C/c1cccc(Cl)c1Cl)CCCC3,-0.312
6,COc1cc(NC(=O)C2CCCN2C(=O)C2CCC(C)CC2)cc(OC)c1OC (stereo unspecified),0.546
7,O=C(CCN1CCCCC1)c1ccccc1,-0.426
8,CCOC(=O)Nc1ccc(C)cc1NC(=O)OCC,0.103
9,CC(C)(C)C(=O)Nc1ccc(S(=O)(=O)c2ccc(NC(=O)C(C)(C)C)cc2)cc1,0.254
10,Cc1c(NC(=O)Nc2ccc(Cl)c(Cl)c2)sc(=S)n1C,0.371
11,CCC(CC)c1nnc(NC(=O)C2COc3ccccc3O2)s1 (stereo unspecified),active: 3.82
12,CCn1c2ccccc2c2cc(NS(=O)(=O)c3ccc(C)cc3)ccc21,-0.244
13,COc1ccc(NC(=O)c2ccccc2NS(C)(=O)=O)cc1OC,0.00676
14,O=C(C(Cc1ccccc1)N1C(=O)c2ccccc2C1=O)N1CCc2ccccc21 (stereo unspecified),-0.00701
15,CCCc1c(C)c2cc(C)ccc2[nH]c1=O,-1.09
16,COCc1nnc(NC(=O)c2ccc(NC(=O)C(C)C)cc2)s1,-0.0999
17,Cc1onc(-c2ccccc2Cl)c1C(=O)Nc1ccccc1N1CCOCC1,-0.0396
18,O=C1CC(C(=O)N(c2ccc(F)cc2)C(C(=O)NC2CCCC2)c2ccccn2)CS1 (stereo unspecified),0.0588
19,Cc1ccc(S(=O)(=O)c2nc(NCc3ccc4c(c3)OCO4)sc2Cl)cc1,-0.124
20,O=C(Nc1ccccc1F)c1ccncc1,-0.212
21,Cc1cc(=O)n(C)c(=O)n1CC(=O)N1CCCCCC1,0.975
22,CCOc1ccc(NC(=O)N2CCC(NC(=O)C(Cc3ccc(OC)c(OC)c3)NC(C)=O)CC2)cc1 (stereo unspecified),-0.0478
23,CCCC(=O)NCCc1cc(OC)c(OC)cc1Br,0.142

row,SMILES,z-score
1,Cc1nc2ccccc2c(=O)n1NC(=O)Cc1ccccc1,-0.647
2,C/C=C/CSc1nc2c(c(=O)[nH]c(=O)n2C)n1CCC,-0.0886
3,CN(C)CCCNS(=O)(=O)c1ccc(Oc2ncc(C(F)(F)F)cc2Cl)cc1,0.269
4,CCN(CC)S(=O)(=O)c1cc(C(=O)Nc2cccnc2)ccc1Cl,-0.586
5,Cc1ccc(OC(C)C(=O)N2CCc3ccccc32)cc1 (stereo unspecified),0.303
6,O=C(Nc1cc2c3c(c1)C1CCCC1CN3CC1CCCC21)c1ccccc1 (stereo unspecified),0.78
7,Cc1nc(CS(=O)(=O)c2ccccc2)cc(Sc2ccccc2Cl)n1,0.313
8,COCCn1c(-c2ccc(Cl)cc2)nc2c(c(=O)c3ccccc3n2C)c1=O,-0.92
9,COc1ccc(-c2cc(C(=O)NCc3ccc(Cl)cc3)no2)cc1OC,0.149
10,CCOc1ccc(C(C)(O)CN2CCOCC2)cc1 (stereo unspecified),-0.692
11,O=C(NCCCN1CCN(CCCNC(=O)c2ccccc2F)CC1)c1ccccc1F,0.0387
12,Cn1ncc2c(NNC(=O)Cc3cccc4ccccc34)ncnc21,-0.0819
13,O=c1[nH]c(SCc2ccccc2Cl)nc2c1CCC2,-0.568
14,Cc1ccc(-c2nnn(CC(=O)N3CCCCC3)n2)c(-n2cnnn2)c1,active: 3.32
15,CC1CCN(C(=O)c2ccc(NS(C)(=O)=O)cc2)CC1,0.157
16,CCOC(=O)c1cn(CC(=O)Nc2ccc(C(C)C)cc2)nn1,-0.235
17,Cc1ccc(C(=O)Nc2ccon2)cc1S(=O)(=O)N1CCCC1,-0.0785
18,O=C1c2ccccc2C(=O)N1Cc1nc2ccccc2o1,1.7
19,CCC(=O)N1CCN(c2ccccc2NC(=O)c2cccc(C)c2)CC1,-0.35
20,COc1cc(/C=C(\C#N)C(=O)c2c(C)[nH]c3ccccc23)cc(OC)c1OC,-0.563
21,COc1ccc(C(=O)NCCc2cn3ccc(C)cc3n2)cc1,-0.495
22,COc1ccc(NC(=O)C(NC(=O)OC(C)(C)C)C(C)OCc2ccccc2)cc1 (stereo unspecified),-0.288
23,O=C(CN1C(=O)C2CCCN2C(=O)c2ccccc21)Nc1ccccc1-n1cccc1 (stereo unspecified),0.267

row,SMILES,z-score
1,CCOC(=O)N1CCC(n2c(SCC(=O)N3CCCC3)nc3ccccc3c2=O)CC1,-0.306
2,Cc1ccc(C(=O)NCC(=O)OCC(=O)c2ccc3c(c2)OCCO3)cc1C,-0.0917
3,CN(Cc1ccccc1)C(=O)CCSc1nc(-c2ccc3c(c2)OCO3)cc(C(F)(F)F)n1,-0.301
4,CCC(=O)Nc1ccc(C(=O)Nc2ccc3c(c2)C(=O)N(CC2CCCO2)C3=O)cc1 (stereo unspecified),0.274
5,Cc1ccc2nc(NCCCNC(=O)c3cnccn3)c(C#N)cc2c1,0.37
6,Cc1cc(C=O)c(C)n1-c1ccc(N2CCCC2)c([N+](=O)[O-])c1,-1.56
7,COc1cccc(N(CC(=O)Nc2cccc(C(C)=O)c2)S(C)(=O)=O)c1,active: 4.2
8,CC(C)(C)c1nc2scc(-c3cccs3)c2c(=O)o1,0.0256
9,CC1CCCCN1c1nc2nonc2nc1N1CCCCC1C (stereo unspecified),-0.406
10,O=c1c2ccccc2nc(COc2ccccc2)n1/N=C/c1cc([N+](=O)[O-])ccc1O,0.00614
11,C/C(=N/NC(N)=S)c1ccccc1[N+](=O)[O-],0.0329
12,Clc1ccc(-c2ccnc(Oc3cc(Cl)ccc3Cl)n2)cc1,-0.0489
13,C/[N+]([O-])=C1\Cc2ccccc2C1=O,0.0681
14,COc1ccccc1N1N=C(c2cccs2)CC1c1ccccc1 (stereo unspecified),-0.269
15,COc1ccc(-c2cc(C(F)(F)F)nc(SCC(=O)N3CCOCC3)n2)cc1OC,-0.127
16,CCOc1ccc(C(=O)CCc2nc3ccccc3s2)cc1,-0.389
17,O=C(CCNc1cccc(Cl)c1)c1cccs1,1.4
18,Cc1nc(N/N=C/c2ccccc2)nc(N(C)c2ccccc2)c1[N+](=O)[O-],-0.198
19,COc1ccc(-c2nnc(-c3cccs3)o2)cc1OC,-0.0864
